Laboratory results reported in PMC12136788.
Some of the results follow.

T1: UNK ZnF1-3 (human, UniProt Q9C0B0 31-174)
T1 sequence: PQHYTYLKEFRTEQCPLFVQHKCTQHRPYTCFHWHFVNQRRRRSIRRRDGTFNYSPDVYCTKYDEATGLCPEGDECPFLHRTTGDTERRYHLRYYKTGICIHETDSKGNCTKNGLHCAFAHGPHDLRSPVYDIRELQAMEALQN

B1: chr12:93046693:93046694:-_ENSMUSG00000020964_ENSMUST00000021347|mus_mus|FALSE|FALSE (ssRNA)
RNA: GGGAGUUCUACAGUCCGACGAUCUUGAGAGGAAUGCUGGCUGCCUCUCAAAGAUCUGCCUCUCUGUGGCCAUGUCUUCAAAUUUGGAGGCAAAUAUCUUCGAGGAAAAUUUUUGCUUCCUGGGUUUCCCAUAAUACUGUGAGCCAACAGAGGAUUGAGCAUCA
B2: chr5:21280853:21280854:-_ENSMUSG00000029014_ENSMUST00000030771|mus_mus|FALSE|FALSE (ssRNA)
RNA: GGGAGUUCUACAGUCCGACGAUCCUUAGCUUCACUUUUAGAAGGAACUGAGUUGUCAAAAGUAGGAUCUACACUGUUAAAUGCCCGCCUUUUCACUGGAUCAGACAACAUUUCAUAAGCUUUAGUUAUGCAAGUGAAGUAGUCCAACAGAGGAUUGAGCAUCA
B3: chr1:229631779:229631780:-_ENSG00000069248_ENST00000261396|hu_hu|FALSE|FALSE (ssRNA)
RNA: GGGAGUUCUACAGUCCGACGAUCUAAUUCCCAUUUACUGAUGUUUGAACUCGUCAGGCUAUAAAAGCUUGAUCUCUCUCUAUCCCAGAGAACACUUGAAAGUGUGAGAUCACUACUAGGAGAUAAAAUUCCAAAAAGAGAAGACAACAGAGGAUUGAGCAUCA
B4: chr16:94664741:94664742:+_ENSMUSG00000040785_ENSMUST00000117648|mus_hu|mus_mus_mus_hu_False|78_108 (ssRNA)
RNA: GGGAGUUCUACAGUCCGACGAUCUGGCAUGGAUCUUGGUAGCUGAUAUUCAGGAGAAAUGUUGGCCAAGGGUGUAUAUAUGCUGGUGUACUGGGGCAAACCUGGUAACACGUUUAUGUAUGCUGGCGGUGUCUGGGUGAUAUCCAACAGAGGAUUGAGCAUCA
B5: chrX:98862621:98862622:+_ENSMUSG00000034160_ENSMUST00000044475|mus_hu|mus_mus_mus_hu_False|48_88 (ssRNA)
RNA: GGGAGUUCUACAGUCCGACGAUCCUGCAUCUCCUUUAGAGUGUUUCCCAUAUUGGAGUAGGCAUCAGCAAAGGUAGGACUGAUUCGUAUGGCUUCUUUAUAAUGCAUCAGAGCUUCCUGCAGUUUUCCCUGCUGCUGCAGUACCAACAGAGGAUUGAGCAUCA
B6: chr11:66627819:66627820:+_ENSG00000173621_ENST00000309602|hu_mus|FALSE|FALSE (ssRNA)
RNA: GGGAGUUCUACAGUCCGACGAUCCUUGGUGGCUCUGAGCACCUGUUGGUGGGACCUGUCCCUUUAGUCUGGAGGCCAAAACCAAGGAAAGGGUUUGCUGUCCCACCAAGUACAUGGGGGCCUGAGGUACUGAGGAUAAAAAGCCAACAGAGGAUUGAGCAUCA
B7: 239353028_239353148_847_CDS_ENSG00000065802_ENST00000264607|human|control|control (ssRNA)
RNA: GGGAGUUCUACAGUCCGACGAUCGAAGUCAGGGUUCGCGCCAGCCAGGAGGAGCAGCCGGAAGCACUGGAGGUUGUGGUAGGCUGCGCUGAUGUACAAGGGGCAGACCACCAAGGAGGUGAGCCGCCGGGAGAAUCGAGGCUGCAACAGAGGAUUGAGCAUCA
B8: 54627192_54627312_8999_3pUTR_ENSG00000094916_ENST00000209875|human|control|control (ssRNA)
RNA: GGGAGUUCUACAGUCCGACGAUCCACCACCAGCCCUCGUUUAGAAUCCAAUCCUAAAGCUACCGGAAACCAGAACACUGACUUGAGCCUUAAGAGUGUUGUGACAUGAUUAAACUGUCUUUUCAGGUGUUCUCAAAGAAUUUCCAACAGAGGAUUGAGCAUCA
B9: chr18:9257185:9257186:+_ENSG00000101745_ENST00000400020|hu_hu|motif|central (ssRNA)
RNA: GGGAGUUCUACAGUCCGACGAUCUUGGAAUUGUUUGGUAUGUUCACAAAUGACAGAAGGCAUGCUACAUCUUCGAACUUCGGUGGUAGGUCUCCCCUCGCUUAUAAUUAGUUUAACAUCUUCUACAGAAGAUGACCUAAGAUGCAACAGAGGAUUGAGCAUCA
B10: chr11:75113396:75113397:+_ENSG00000149273_ENST00000524851|hu_mus|FALSE|FALSE (ssRNA)
RNA: GGGAGUUCUACAGUCCGACGAUCCCCUCCAAGGAGUUUGUAGCGUAGAGACUCUGCCUGGGCAAUGGCACACAGACCUCUUGUGGCCACUUUCUCUGCAUAAAGCUCUACGCUGCCUUCAGGGAAGCCAAAGCGCUUCUGGACCAACAGAGGAUUGAGCAUCA
B11: chr9:21312366:21312367:-_ENSMUSG00000032180_ENSMUST00000034698|mus_mus|FALSE|FALSE (ssRNA)
RNA: GGGAGUUCUACAGUCCGACGAUCAGGGUGGGGGGCAGCACCACAGCUUCACCCCAUCCUGAUAGCUGCAAGACUGAAGCUAAGGCACGAUUUCAGGAGAAAGCCAGGGCAUCCAAGAGCAGUGUCCCCACACUGCUGCGCCCACAACAGAGGAUUGAGCAUCA
B12: chr17:37360870:37360871:+_ENSG00000108298_ENST00000225430|hu_mus|FALSE|FALSE (ssRNA)
RNA: GGGAGUUCUACAGUCCGACGAUCCCGCUAUGUACAGACACGAGGGAAGCUUUAUUUCUUGGUCUCCUCCUCCUUGGACAGAGUCUUGAUGAUCUCUUCCUUCUUGGCCUGGAGGCGCUCCUCCCGGCGCUUUCGUGCUUCCUUCAACAGAGGAUUGAGCAUCA
B13: chr7:157177620:157177621:+_ENSG00000105993_ENST00000429029|hu_mus|motif|central (ssRNA)
RNA: GGGAGUUCUACAGUCCGACGAUCGCCCAUUCCACUGCCGCCAAAUGACGUUGAAGAAAAUGAAGUGAGACCCCCAUGACCGGGUGACCCAAAUGGAGUGAAGCCUGUAUCAAAAGCAGGAAAUCCACUUCCAAAAGAAGGAAACAACAGAGGAUUGAGCAUCA
B14: chr19:42880530:42880531:+_ENSG00000105429_ENST00000334370|hu_hu|FALSE|FALSE (ssRNA)
RNA: GGGAGUUCUACAGUCCGACGAUCUGCCAGGAAGGGCUCAGAGCGGCGGAAGGCGGGAGGUGGGAGCCCAGCCGGCUUCCAGGCGGAGGCCGGGGCAGUAGGGUCAGGUGGGAAGCAGACGGUGACCUUGGCGAAGGGGCGGCUCAACAGAGGAUUGAGCAUCA
B15: 80223426_80228509_597_CDS_ENSG00000135338_ENST00000369846|human|control|control (ssRNA)
RNA: GGGAGUUCUACAGUCCGACGAUCUGGUAGACCCUUAGGGCUUGGUUUCCGAGGGGCUUGGUGAUGUACUUGGCCAUCUGAAGUUUGUCUUUUAGGAUUUUUUCUCCUAACACUUGCAGGUGAAGAACUGACCAGCGAUGAUCGCAACAGAGGAUUGAGCAUCA
B16: chr5:100466915:100466916:-_ENSMUSG00000029328_ENSMUST00000153442|mus_mus|FALSE|FALSE (ssRNA)
RNA: GGGAGUUCUACAGUCCGACGAUCAGCACAAAUCCAAAUCCUCUUGAUCUUCCCGUGACUGGGUCUGUUUUAAUUGUGCAGUCUACCACUUCCCCAAAUCGAGACAAAUAUUCAGUCAGAUCUUUCUUGCUUGUAUCCCAGCUCCAACAGAGGAUUGAGCAUCA
B17: chr4:38126685:38126686:+_ENSG00000065882_ENST00000510573|hu_hu|FALSE|FALSE (ssRNA)
RNA: GGGAGUUCUACAGUCCGACGAUCGUCUUUUCCAUCUGUACCAAGCCAAGGUUGGGUAGCGUGCUUUUUAUAAAGUCAACUAUGGUUUCUAGGUUUUCAUGCUGCAGAAUCAAGGGCUUAUGGCUUCCCAACAGACUUAAAGCCCAACAGAGGAUUGAGCAUCA
B18: chr13:48919227:48919228:+_ENSG00000139687_ENST00000267163|hu_mus|motif|central (ssRNA)
RNA: GGGAGUUCUACAGUCCGACGAUCCUUGGUACUGGUAUCGAUUUCUUUUAAUAAGUCAAAGAAUUUAUAGACACUGGUUUCGGUGCUUUUCUGUAGCUCAGUAAAAGUGAAUGGCAUCUCAUCUAGAUCAACUGCUGCGAUAAACAACAGAGGAUUGAGCAUCA
B19: chr12:32871593:32871594:+_ENSG00000087470_ENST00000452533|hu_mus|FALSE|FALSE (ssRNA)
RNA: GGGAGUUCUACAGUCCGACGAUCCAAUACAUCCAUGGCAUCAGUACCCGCAUCCAUGAGAUCAAGUUUAGUGAUUACAGCUAGAGUUCUGCGCCCAUCUGGAUCUACCUCUCUGGAAAUCUUGAGUGCUUCUGAUGUUGCCAUCAACAGAGGAUUGAGCAUCA
B20: 110434536_110436406_1209_CDS_ENSG00000134987_ENST00000506538|human|control|control (ssRNA)
RNA: GGGAGUUCUACAGUCCGACGAUCCCACAACUGCAGGCUUCCUUGUUCACUGCCCAGAAGUAUUUUAUUCAAGUAGGUACUUGGAUGCAAAAUUGCAGAAAUUUUAAAUACUGAUUUAUCAAAAGUCAACUGCAGGUAUUCUUCCAACAGAGGAUUGAGCAUCA
B21: chr7:140404665:140404666:+_ENSG00000090266_ENST00000247866|hu_hu|hu_hu_hu_mus_False|28_78 (ssRNA)
RNA: GGGAGUUCUACAGUCCGACGAUCUGCUCCUACUCGUCCAGAGAGUUUACAGUGUCAGUCUUCAUCAUCAGGAGGGAUUCCCAGUUCUUCAUCUGUCCACUGUGAAGGAUCAGGAUAUGAAAAGUGACCCAGCACAGCAUCCGACAACAGAGGAUUGAGCAUCA
B22: chr2:104430793:104430794:+_ENSMUSG00000027176_ENSMUST00000028599|mus_mus|motif|central (ssRNA)
RNA: GGGAGUUCUACAGUCCGACGAUCCGUCUCCUGACAUGGCCUCGGGGGACUACAACGUACGCACCAGCCGGCAAAGGGAAGCGGGAAAAGGAAAAUUAAACUAAAGGCAAACCCCACCAAAACCAGGAACACUACCCCUGUCCCCAACAGAGGAUUGAGCAUCA

molecular target: T1, UNK ZnF1-3; assay: nsRBNS (natural sequence RNA bind-n-seq); RBNS binding buffer (assumed for nsRBNS): 25 mM Tris pH 7.5, 150 mM KCl, 3 mM MgCl2, 0.01% Triton X-100, 500 ug/ml BSA, 20 U/ml SUPERase-In, 4 C; UNK is unkempt and MSI1 is Musashi-1; names of the RNAs are library labels; protein concentration not given here; high values mean tight binding

| Binder | binding signal [enrichment R] |
| --- | --- |
| B1 | 0.852 |
| B2 | 1.53 |
| B3 | 0.956 |
| B4 | 0.95 |
| B5 | 0.956 |
| B6 | 1.15 |
| B7 | 0.561 |
| B8 | 1.51 |
| B9 | 0.843 |
| B10 | 0.689 |
| B11 | 0.827 |
| B12 | 0.577 |
| B13 | 1.27 |
| B14 | 2.07 |
| B15 | 0.569 |
| B16 | 1.06 |
| B17 | 0.953 |
| B18 | 0.884 |
| B19 | 1.16 |
| B20 | 1.07 |
| B21 | 1.18 |
| B22 | 2.18 |
